One block for each compound: values may come before it.
Legend:
LBD of NR2F2 = settings: targeting the LBD of NR2F2; cited from earlier work
Description: As a true orphan receptor, endogenous ligands modulating NR2F6 activity remain unknown. […] A metabolite screening identified 1-deoxysphingolipids as binders of the NR2F1/NR2F2 LBD, promoting NR2F1/NR2F2 transcriptional activity. […] A r ...

NR2F6 LBD = molecular target: T1, NR2F6 LBD (Homo sapiens, UniProt P10588); assay: TR-FRET recruitment of NR coregulator peptides in the presence of ligand; type: biochemical; set-up: encoding the human NR2F6 LBD (residues 164-404) with an N-terminal; made in house; host or cells: E. coli BL21(DE3); settings: 50 µM non-covalent ligand, technical triplicate
T1 sequence (P10588 164-404): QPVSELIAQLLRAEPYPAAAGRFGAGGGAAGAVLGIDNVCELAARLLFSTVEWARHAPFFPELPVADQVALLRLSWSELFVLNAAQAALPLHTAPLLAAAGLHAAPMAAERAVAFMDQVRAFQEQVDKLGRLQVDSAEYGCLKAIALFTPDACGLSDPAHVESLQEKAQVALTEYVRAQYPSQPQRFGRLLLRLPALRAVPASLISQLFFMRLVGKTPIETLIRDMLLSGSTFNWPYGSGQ
Method: (§1) by sequencing (Baseclear).
(§2) with 0.1% (v/v) formic acid.
(§3) to deconvolute the m/z spectra.
(§4) Crystals grew within three days
(§5) frozen in liquid nitrogen.
(§6) generated using AceDRG 20.
(§7) Plates were incubated for one
(§8) nm) using the supplier recommended HTRF settings.
(§9) fitted using a four-parameter logistic equation.
(§10) peptide background. Data recorded in triplicate.

wildtype NR2F6 LBD = molecular target: T2, wildtype NR2F6 LBD (Homo sapiens, UniProt P10588); assay: TR-FRET coregulator recruitment upon full ligation, wildtype; type: biochemical; settings: relative to DMSO, three independent experiments
T2 sequence (P10588 165-393 limits assumed): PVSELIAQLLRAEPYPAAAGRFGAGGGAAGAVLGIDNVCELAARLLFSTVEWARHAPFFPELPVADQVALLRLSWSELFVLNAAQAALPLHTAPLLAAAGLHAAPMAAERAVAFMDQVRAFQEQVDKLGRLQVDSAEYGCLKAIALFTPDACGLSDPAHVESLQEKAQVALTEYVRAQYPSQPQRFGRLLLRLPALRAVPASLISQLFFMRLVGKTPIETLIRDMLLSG
Method: as §1, §2, §3, §4, §5, §6, §7, §8, §9, §10

NR2F6^C203A LBD = assay: TR-FRET coregulator recruitment with covalent probes, C203A; type: biochemical, human; settings: NSD1, BCL11A-1, BCL11A-2 recruitment
Method: as §1, §2, §3, §4, §5, §6, §7, §8, §9, §10

Structure (SMILES): COc1ccc(O)c2ccccc12 [4-methoxynaphthol]
inhibition (in words) (LBD of NR2F2): inhibitors targeting the LBD of NR2F2

Structure (SMILES): CC1=C(/C=C/C(C)=C\C=C\C(C)=C\C(=O)O)C(C)(C)CCC1 [9-cis-retinoic acid]
effect on recruitment of F/YSXXLXXL/Y motifs (in words) (NR2F6 LBD): failed to significantly alter recruitment of F/YSXXLXXL/Y motifs
recruitment of canonical NR coregulators (in words) (NR2F6 LBD): failed to significantly alter recruitment of F/YSXXLXXL/Y motifs or induce recruitment of canonical NR coregulators

Structure (SMILES): COc1ccc(CCNc2ncnc3sc(C)cc23)cc1OC.Cl [CIA1]
inhibition (in words) (LBD of NR2F2): inhibitors targeting the LBD of NR2F2

fold reduction in BCL11A-1 recruitment (wildtype NR2F6 LBD): 9 fold
fold reduction in NSD1 recruitment (wildtype NR2F6 LBD): 24 fold
inhibition of BCL11A-2 recruitment (in words) (wildtype NR2F6 LBD): complete inhibition
Structure (SMILES): O=C(Nc1ccccc1O)c1cc([N+](=O)[O-])ccc1Cl [III]
inhibitory activity after C203A mutation (in words) (NR2F6^C203A LBD): lost almost all of their inhibitory activity

Structure (SMILES): Cc1c(C)c2c(c(C)c1O)CCC(C)(COc1ccc(CC3SC(=O)NC3=O)cc1)O2 (stereo not drawn) [troglitazone]
effect on recruitment of F/YSXXLXXL/Y motifs (in words) (NR2F6 LBD): failed to significantly alter recruitment of F/YSXXLXXL/Y motifs
